Measured values: article PMC4336329 (PLoS ONE, 2015)
The campaign covered roughly 310,000 compounds. About 14,000 (4.5%) showed an effect of 50% or more. The effect is printed as a negative number. The list shows a part of the results.

biological target: human ether-à-go-go-related gene (hERG) potassium channel (human, UniProt Q12809); experiment: primary screen, population patch clamp on CHO cells stably expressing hERG
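Also: peak tail current of the secondary pulse compared with the same well before compound.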

Chain of human ether-à-go-go-related gene (hERG) potassium channel (Q12809 whole entry, looked up): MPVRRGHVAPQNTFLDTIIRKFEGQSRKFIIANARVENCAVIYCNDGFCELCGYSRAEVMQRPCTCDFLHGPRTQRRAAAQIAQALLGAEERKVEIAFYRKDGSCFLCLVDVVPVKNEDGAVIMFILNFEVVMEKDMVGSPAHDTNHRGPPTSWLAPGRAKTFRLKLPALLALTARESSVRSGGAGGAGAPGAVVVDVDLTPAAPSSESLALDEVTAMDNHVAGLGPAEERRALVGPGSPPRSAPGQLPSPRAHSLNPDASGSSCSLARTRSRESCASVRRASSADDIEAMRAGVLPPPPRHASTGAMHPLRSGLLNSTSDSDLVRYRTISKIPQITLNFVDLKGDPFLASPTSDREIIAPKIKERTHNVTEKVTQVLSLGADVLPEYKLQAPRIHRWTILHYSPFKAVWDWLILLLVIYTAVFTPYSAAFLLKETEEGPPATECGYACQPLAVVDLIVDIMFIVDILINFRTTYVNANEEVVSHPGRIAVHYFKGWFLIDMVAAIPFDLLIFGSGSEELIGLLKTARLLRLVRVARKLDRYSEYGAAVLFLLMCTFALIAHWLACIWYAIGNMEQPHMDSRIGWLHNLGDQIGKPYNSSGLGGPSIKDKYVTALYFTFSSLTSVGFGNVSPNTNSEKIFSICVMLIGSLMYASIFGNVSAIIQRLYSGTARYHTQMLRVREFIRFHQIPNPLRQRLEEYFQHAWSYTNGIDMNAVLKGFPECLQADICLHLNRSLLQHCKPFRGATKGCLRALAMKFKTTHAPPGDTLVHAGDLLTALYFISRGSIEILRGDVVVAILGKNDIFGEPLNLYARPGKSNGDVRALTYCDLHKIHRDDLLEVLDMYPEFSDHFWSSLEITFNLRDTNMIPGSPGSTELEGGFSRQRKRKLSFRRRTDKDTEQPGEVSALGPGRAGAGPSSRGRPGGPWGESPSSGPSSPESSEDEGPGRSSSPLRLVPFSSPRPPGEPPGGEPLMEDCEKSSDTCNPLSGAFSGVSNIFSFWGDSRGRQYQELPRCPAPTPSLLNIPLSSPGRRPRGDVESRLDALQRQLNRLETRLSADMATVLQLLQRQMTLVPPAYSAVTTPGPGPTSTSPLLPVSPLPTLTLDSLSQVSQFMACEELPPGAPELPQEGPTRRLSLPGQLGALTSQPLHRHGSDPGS

| SMILES | hERG current change (%, negative = inhibition) at 10uM [%] |
| --- | --- |
| CCN1CCN(c2nc3ccccc3nc2C(C#N)C(=O)OCc2ccccc2)CC1 (centres unmarked) | -73.7 |
| CCN1C(=O)C(O)(CC(=O)c2ccccn2)c2ccccc21 (centres unmarked) | 8.41 |
| O=C(c1ccc(Cl)c(S(=O)(=O)N2CCCCCC2)c1)N1CCN(c2ccc(O)cc2)CC1 | -50.4 |
| C=CCn1c(=O)c2ccccc2n2c(SCc3nc4ccccc4s3)nnc12 | -34.4 |
| COc1ccc2c(c1OC)C(=O)N(C(C)C(=O)O)C2=O (centres unmarked) | 10.1 |
| CCOC(=O)N1CCN(C2=C(NS(=O)(=O)c3ccc(NC(C)=O)cc3)C(=O)c3ccccc3C2=O)CC1 | -38.3 |
| COc1cccc(C(=O)C2CCCN(Cc3cccn3-c3cccnc3)C2)c1 (centres unmarked) | -29 |
| C=CCNC(=O)NC(=O)COC(=O)c1cccnc1SC | -3.33 |
| CC(C)CCn1c(Oc2ccc(Cl)cc2)nc2c1c(=O)n(C)c(=O)n2C | -15.1 |
| C/C=C(\C)C(=O)OC(C)(C)[C@@H]1Cc2cc3ccc(=O)oc3cc2O1 | -21.7 |
| Cc1cc(C)c(S(=O)(=O)N2CCCC(C(=O)N3CCCC3)C2)c(C)c1 (centres unmarked) | -20.8 |
| O=C(Nc1oc2ccccc2c(=O)c1-c1ccc(Cl)cc1)c1ccco1 | -20.4 |
| CCCNC(=O)c1c(N)n(-c2ccc(S(N)(=O)=O)cc2)c2nc3ccccc3nc12 | 2.48 |
| COc1cc(-c2cc(-c3ccccc3)nc(SCC(=O)O)c2C#N)cc(OC)c1OC | 28.3 |
| CCN(CC)c1ccc(/C=C2\SC(=O)N(C(C)C)C2=O)o1 | 11.2 |
| CC(=O)N1CCc2cc(S(=O)(=O)CCC(=O)NCc3ccco3)ccc21 | 12.5 |
| CN1CCC(N(C)S(=O)(=O)c2ccc(NC(=O)COc3cccc(Cl)c3)cc2)CC1 | -29.7 |
| CC(C)(C)NC(=O)Cn1c(SCC(=O)N2CCCCCC2)nc2ccccc21 | 2.81 |
| Fc1ccc(CSc2nncn2NCc2ccc3c(c2)OCO3)cc1 | -12.6 |

| SMILES | hERG current change (%, negative = inhibition) at 10uM [%] |
| --- | --- |
| Cc1ccc(CN(Cc2ccccc2)C(=S)NCC(=O)NCc2cccnc2)o1 | -29.7 |
| O=C(N/N=C/c1ccc[nH]1)c1ccccc1O | 41.9 |
| CCCCC(O)(CCCC)C(=O)NN(C(=O)OCC)c1ccccc1 | 1.32 |
| Cc1ccc(C)c(N2CCN(S(=O)(=O)c3cn(C)cn3)CC2)c1 | -21.8 |
| CCN1C(=O)CC(N2CCC(Cc3ccccc3)CC2)C1=O (centres unmarked) | -2.52 |
| CCc1nc(SCC#N)c(C#N)cc1C | 7.53 |
| O=C(CN1C(=O)NC(Cc2c[nH]c3ccccc23)C1=O)Nc1ccc(Br)cc1F (centres unmarked) | 5.58 |
| CCC(=O)N(C)CCc1cc2c(c(OC)c1/C=N/NC(=O)c1ccc(Br)cc1)OCO2 | -44.1 |
| N#Cc1c(N)nc2c3c(sc(=N)c2c1N)NC(=O)CC3c1c(F)cccc1Cl (centres unmarked) | -15.7 |
| O=C(CCSCc1ccccc1Cl)NC1CCCC1 | -4.08 |
| O=C(Nc1nc2n(n1)C(c1ccc(F)cc1)CC(c1ccccc1)N2)c1ccco1 (centres unmarked) | -57.4 |
| COCCNC(=O)CN1C2CCC1CC(O)(c1cccnc1)C2 (centres unmarked) | 0.682 |
| Cc1nc2sc(C)c(C)c2c(=O)o1 | 11.1 |
| CC(OC(=O)c1ccccc1O)C(=O)Nc1cccc(Cl)c1 (centres unmarked) | -9.12 |
| O=[N+]([O-])c1ccc(N2CCOCC2)cc1NCc1ccccc1 | -3.2 |
| COc1cccc(C2C(C(N)=O)=C(C)Nc3nc(-c4ccccc4Cl)nn32)c1 (centres unmarked) | -20.6 |
| Cc1nc(NC(=O)c2ccc(OCC(C)C)cc2)sc1Cc1ccc2c(c1)OCO2 | 28.3 |
| COc1ccc(-c2cc(C(=O)Nc3cc(C)ccc3O)no2)cc1 | 16.4 |
| CCC(=O)N1N=C2CC(C)(C)OCC2C1c1ccccc1 (centres unmarked) | 6.62 |

| SMILES | hERG current change (%, negative = inhibition) at 10uM [%] |
| --- | --- |
| O=C(CSc1ccc2nnc(-c3ccccn3)n2n1)Nc1ccc2c(c1)OCO2 | -33.7 |
| CN(Cc1ccccc1)C(=O)CCC1CCN(C(=O)c2ccccc2C(F)(F)F)CC1 | 8.38 |
| CCOC(=O)c1cc(-c2ccc(/C=C3/C(=O)NC(=O)C(C#N)=C3C)o2)ccc1Cl | 9.77 |
| COc1ccc(CNC(=O)COC(=O)c2cnccn2)cc1 | 10.7 |
| c1ccc(CC2CCN(c3nc4ccccc4n4cnnc34)CC2)cc1 | 4.3 |
| CCCCNc1ccccc1C(=O)OCC(=O)Nc1ccc(S(N)(=O)=O)cc1 | -4.61 |
| CCOc1ccc(-n2c(SCC(=O)Nc3ccc(Br)cc3)nc3n[nH]c(C)c3c2=N)cc1 | 15 |
| CCc1noc(C)c1C(=O)Nc1ccc(C(F)(F)F)cc1 | 2.37 |
| CC1CN(C(=S)Nc2ccccc2F)CC(C)O1 (centres unmarked) | 13.9 |
| Cc1ccc(S(=O)(=O)NC(N)=NCCc2ccccc2)cc1C | -3.72 |
| CCCCn1c(-c2ccc(Cl)c(Cl)c2)nc2cc3[nH]c(=O)c(C(C)C)nc3cc21 | -2.23 |
| COc1ccc(/C(N)=N/OC(=O)CC2CCCCC2)cc1 | 7.9 |
| COc1ccc(CCC(C)Nc2cccc(C)c2)cc1 (centres unmarked) | 4.48 |
| O=C(NCCc1ccccc1)c1ccc2c(c1)OCO2 | 15.4 |
| COc1ccc(CC(=O)OCC(=O)Nc2ccc3c(c2)OCO3)cc1 | -9.79 |
| CC(=O)OCC(=O)C1CCC2C3CC=C4CC(O)CCC4(C)C3CCC12C (centres unmarked) | 22.1 |
| Cn1ncc(Br)c1NC(=O)Nc1ccc(Cl)cc1 | 16.7 |
| COCCN(C(=O)COC(=O)CCCOc1ccc(OC)cc1)c1c(N)n(Cc2ccccc2)c(=O)[nH]c1=O | 4.6 |
